The values below come from the antibiotic and cytotoxicity screens of Wong et al. (2023).

The list shows a part of the results.

Assay [1] deals with HSkMC (human skeletal muscle cells). As to the kind of experiment: cytotoxicity call (relative viability < 0.9). The conditions noted are these: 10 µM.
Assay [2] deals with HepG2. As to the kind of experiment: cytotoxicity call (relative viability < 0.9). The conditions noted are these: 10 µM.
The subject of assay [3] is S. aureus RN4220. The assay can be described thus: growth inhibition call (relative growth <= 0.2). The note with it: 50 µM.

`Cc1cn(C[C@H](N)C(=O)O)c(=O)n(Cc2ccsc2C(=O)O)c1=O`: the cytotoxicity call in assay [1] and in assay [2] was “inactive” in each case. In addition, the growth inhibition call in assay [3] is “inactive”.

Turning to `C[C@H]1CN([C@@H](C)CO)C(=O)c2cc(-c3ccncc3)cnc2O[C@@H]1CN(C)S(=O)(=O)c1ccccc1`, the cytotoxicity call in assay [1] and in assay [2] was “inactive” in each case. Further, the growth inhibition call in assay [3] is “inactive”.

`COC(=O)[C@@H](C)n1nc(-c2ccccc2)c2ccccc21.COC(=O)[C@H](C)n1nc(-c2ccccc2)c2ccccc21`: the cytotoxicity call in assay [1] and in assay [2] was “inactive” each time. Besides, in assay [3], the growth inhibition call was “inactive”.

Take `Oc1ccc(O)cc1`: the cytotoxicity call in assay [1] was “inactive”. In assay [2], the cytotoxicity call is “active”. Besides, the growth inhibition call in assay [3] was “inactive”.

Turning to `CC#CCO[Si](C#CCCCCCC)(C(C)C)C(C)C`, the cytotoxicity call in assay [1] and in assay [2] was “inactive” in each case. For the same molecule, in assay [3], the growth inhibition call is “inactive”.

As for `C[C@H](CO)N1C[C@H](C)[C@H](CN(C)C(=O)c2ccccc2)OCCCC[C@H](C)Oc2ccc(NC(=O)Nc3ccc4c(c3)OCO4)cc2C1=O`, the cytotoxicity call in assay [1] and in assay [2] was “inactive” each time. Further, the growth inhibition call in assay [3] was “inactive”.

Consider `C[C@H](CO)N1C[C@H](C)[C@H](CN(C)CC2CC2)OCCCC[C@H](C)Oc2ccc(NC(=O)C3CCCCC3)cc2C1=O`, for which the cytotoxicity call in assay [1] and in assay [2] was “inactive” throughout. Besides, the growth inhibition call in assay [3] is “inactive”.

`O=C(C[C@@H]1CC[C@@H]2[C@H](COC[C@H](O)CN2S(=O)(=O)c2ccc(F)cc2)O1)N[C@H]1CCN(Cc2ccccc2)C1`: the cytotoxicity call in assay [1] and in assay [2] was “inactive” in each case. For the same molecule, the growth inhibition call in assay [3] is “inactive”.

In the case of `O=C(C[C@H]1C[C@@H]2c3cc(NC(=O)NC4CCCC4)ccc3O[C@@H]2[C@@H](CO)O1)NCc1ccc(-c2ccccc2)cc1`, the cytotoxicity call in assay [1] and in assay [2] was “active” throughout. Further, the growth inhibition call in assay [3] is “inactive”.

On to `CN(C)CCCCNC(=O)[C@H]1C[C@H]2C(=O)N[C@@H](CCCCN)C(=O)N2[C@H]1c1ccc(O)cc1`, for which the cytotoxicity call in assay [1] and in assay [2] was “inactive” each time. Also, the growth inhibition call in assay [3] was “inactive”.

With `C=CCNC(=O)[C@H]1[C@@H]2C(=O)O[C@@H](c3ccccc3)[C@@H](c3ccccc3)N2[C@@H](c2ccc(O)cc2)[C@]12C(=O)Nc1ccc(C#CC3=CCCCC3)cc12`, the cytotoxicity call in assay [1] and in assay [2] was “inactive” throughout. Also, the growth inhibition call in assay [3] was “inactive”.

As to `Cn1cnc(S(=O)(=O)N2C[C@H](O)COC[C@@H]3O[C@@H](CC(=O)NC4CCCC4)CC[C@H]32)c1`, the cytotoxicity call in assay [1] and in assay [2] was “inactive” each time. Further, the growth inhibition call in assay [3] is “inactive”.

With `COc1ccc([Si](C)(C)[C@H]2[C@H](CC(=O)N3Cc4ccccc4C[C@H]3CO)O[C@@]3(C(=O)N(Cc4ccc(N5CCC5=O)cc4)c4ccccc43)[C@@H]2C)cc1`, the cytotoxicity call in assay [1] and in assay [2] was “inactive” throughout. For the same molecule, the growth inhibition call in assay [3] was “inactive”.

For the molecule `CCOC(=O)[C@H]1CNC(=S)N[C@@]1(C)O`, the cytotoxicity call in assay [1] and in assay [2] was “inactive” throughout. Further, the growth inhibition call in assay [3] was “inactive”.

Turning to `C[C@@H]1CN([C@H](C)CO)C(=O)c2cc(C#CC3CCCCC3)cnc2O[C@@H]1CN(C)C(=O)Cc1ccccn1`, the cytotoxicity call in assay [1] and in assay [2] was “inactive” throughout. Further, in assay [3], the growth inhibition call is “inactive”.

Take `O=C(N[C@H]1CC=CC[C@H](CC(=O)N(CCO)Cc2ccccc2)C(=O)N[C@@H](Cc2c[nH]c3ccccc23)COC1=O)OCC1c2ccccc2-c2ccccc21`: the cytotoxicity call in assay [1] and in assay [2] was “inactive” throughout. For the same molecule, in assay [3], the growth inhibition call is “inactive”.

For `CN(C)C(=O)c1ccc(-c2cccc(-c3nc(C(=O)NC4CCCCC4)cc4c3[C@@H](CCO)N([S@](=O)C(C)(C)C)C4)c2)cc1`, the cytotoxicity call in assay [1] and in assay [2] was “inactive” in each case. For the same molecule, the growth inhibition call in assay [3] was “inactive”.

Consider `C[C@H]1CN([C@@H](C)CO)C(=O)Cc2cc(NC(=O)Nc3ccc(F)cc3)ccc2O[C@H]1CN(C)Cc1ccc(Cl)c(Cl)c1`, for which the cytotoxicity call in assay [1] and in assay [2] was “active” in each case. Moreover, in assay [3], the growth inhibition call is “inactive”.

For `COc1ccc(CN(C)C[C@@H]2OCCCC[C@H](C)Oc3ccc(NC(=O)NC(C)C)cc3C(=O)N([C@H](C)CO)C[C@H]2C)cc1`, the cytotoxicity call in assay [1] and in assay [2] was “inactive” throughout. The growth inhibition call in assay [3] was “inactive”.

As to `CC(=O)OC1C(=O)C2(C)C(O)CC3OCC3(OC(C)=O)C2C(OC(=O)c2ccccc2)C2(O)CC(OC(=O)C(O)C(NC(=O)c3ccccc3)c3ccccc3)C(C)=C1C2(C)C` (stereo not given), in assay [1], the cytotoxicity call was “inactive”. Also, the cytotoxicity call in assay [2] was “active”. In assay [3], the growth inhibition call was “inactive”.

As to `CC(=O)NCC(=O)N1CCC2(CC1)CN(c1cccnc1)C(=O)CO2`, the cytotoxicity call in assay [1] and in assay [2] was “inactive” each time. Moreover, the growth inhibition call in assay [3] was “inactive”.

With `Cc1ccc(S(=O)(=O)N(C)C[C@@H]2Oc3ccc(NC(=O)Nc4ccc(C(F)(F)F)cc4)cc3C(=O)N([C@@H](C)CO)C[C@H]2C)cc1`, in assay [1], the cytotoxicity call is “inactive”. Besides, the cytotoxicity call in assay [2] was “active”. The growth inhibition call in assay [3] was “inactive”.

Turning to `O=C1CN(S(=O)(=O)Cc2ccccc2)C[C@H]2[C@H](c3ccc(C#Cc4cccc(F)c4)cc3)[C@H](CO)N12`, the cytotoxicity call in assay [1] and in assay [2] was “active” throughout. The growth inhibition call in assay [3] was “inactive”.

Turning to `CCCN(C)C[C@@H]1OCCCC[C@@H](C)Oc2ccc(NC(=O)Nc3ccc(C(F)(F)F)cc3)cc2C(=O)N([C@H](C)CO)C[C@H]1C`, the cytotoxicity call in assay [1] and in assay [2] was “inactive” each time. Besides, in assay [3], the growth inhibition call was “active”.

As for `COc1ccc(NC(=O)Nc2ccc3c(c2)[C@H]2C[C@H](CC(=O)NCc4ccncc4)O[C@H](CO)[C@H]2O3)cc1`, the cytotoxicity call in assay [1] and in assay [2] was “inactive” each time. In addition, in assay [3], the growth inhibition call is “inactive”.
